# In the RNAGym collection of RNA variant scans (doi:10.7554/elife.90254):
# The source gives no read counts; variants with many changes may rest on few reads.
# B1: LINE1-mini (parent)
# chain: GGCAGAGCUCAACACAGCGUGGCAAAGUGGCUGUGGCUAGACUGCC
# Variants of: B1
# Test: self-cleavage, relative activity (ratio to wild type); higher = more cleavage; in vitro, sequencing; the parent is a self-cleaving ribozyme
row,Variant,self-cleavage
1,U20C U28C C45A,0.29
2,U20G A25U U28A G40A,0.24
3,U20C G27A G36C A39U C45A,0.03
4,U20A G22U C46U,0.72
5,G19U U20G A24C,1.13
6,U20G G21U C31A U34G,0
7,U20A A41C C46A,0.03
8,G19U G29A C46G,0.07
9,G19U U20G G27C C42U,2.64
10,U20A G22A C31A,0.07
11,U20A G21A G22C,0.42
12,G19U G22C C45U,0.37
13,U20C A24U G33A,0.02
14,U20C C23U C46A,0.3
15,G19U C31U U43C,0.03
16,U20C A24C U38C,0.26
17,U20G C23A A26U C46U,0.48
18,G19U U28C C37G A41U,0.04
19,U20C G27C C37U,0.03
20,U20G A41C U43A,0
21,U20C A25U G30A U43C,0.05
22,G19U G21C A26U,0.3
23,U20G C23U C42U,0.23
24,U20A A26C G30C,0.08

row,Variant,self-cleavage
1,U20G A24U C31U C42U,0
2,U20C C37U C42G,0.01
3,U20G G21A C31U,0.22
4,U20G G21C C37A,0.02
5,U20G G21C C31G,0.05
6,U20A U28C G30C A39C,0.05
7,U20G A26U U28A,0.14
8,G19U U28C U38A,0.39
9,U20A G30C U38A G44U,0.09
10,G19U G30U U32C A41C,0.03
11,U20C G27C G36C C37G,0.01
12,G19U U34C A41G,0.04
13,G19U G29A A41G,0.14
14,U20C A25G G30U C37U,0
15,G19U C31U G36A C42A G44C,0
16,G19U G33C C37A G40U,0.09
17,G19U G21A A25U A26U U28A,0.13
18,U20A A24G A26G G29U C46A,0.21
19,U20G C31G C37G A39C,0
20,G19U U34G A41U,0.52
21,U20C U34G G44C,0.06
22,G19U G29U C37U A39U,0.07
23,U20A U38G A41G,0
24,U20A U34C G35U,0.06

row,Variant,self-cleavage
1,U20G A26C G40U,0.23
2,U20A G22U A39G,0.06
3,U20G A24G G44U,0.05
4,G19U G22A G40U,0.03
5,U20A C23G G33C G44A,0.01
6,G19U U20C G29A C37A C45G,0
7,G19U G29A G40C C46G,0.01
8,G19U G36U G40U C42G,0.21
9,U20G C23U U38C,0.28
10,G19U U34G U38A,0.06
11,U20A G29C U32C G33A G35C U38G C45A C46U,0
12,U20A U28C G30A,0.23
13,G19U G21A U34A G40C,0.03
14,U20G C37A U43A,0
15,U20G G21U G44U,0.24
16,U20G G21U G44C,0.27
17,U20C A24U U28A G33U,0.02
18,U20A U32G C45G,0.09
19,U20A G21A G29A C37U,0.02
20,U20C C31G U34C,0.06
21,U20C A24U C37G,0.01
22,G19U G22U G30U A39G G44A,0.09
23,G19U U20C U32G U43G,0
24,U20G C23U G27A G33C,0.1

row,Variant,self-cleavage
1,U20A C23A U38A,0.14
2,U20A G22U A25C G40U,0.14
3,U20C G22U U28C,0.49
4,U20A G27A U34G,0.56
5,G19U G35C G40U,0.02
6,U20C C23A G35U U43C,0.13
7,G19U G21A A25U C46U,2.67
8,U20A A24U G40U,0.08
9,U20C G21U A24U,0.55
10,U20A G22U A26U G27A A41G C42U,0.01
11,U20A C23U A24U,2.06
12,G19U G27U U43A,0.05
13,U20G A24G G29A C37U,0.02
14,G19U G40U U43G,0.5
15,U20C U38C A39G,0.3
16,U20C G27A G29C G35C G40U A41U U43A,0.26
17,G19U G27C U34C C37A,0.02
18,U20A C23U U38G U43C,0.02
19,U20C A24C U28G C42G,0.01
20,U20A A26G C31U,0.03
21,G19U G21C G30U G35U G36A,0.69
22,U20A C23U U34A A41C,0.08
23,G19U U20A U32G U34G G44C,0.07
24,U20G A24C C31U C37A,0.11

row,Variant,self-cleavage
1,U20A U34G C42U C45A,0.03
2,U20G A24C G29A C42A,0.22
3,U20A G22C C23A A26C G33U G44U,0.01
4,U20A G22A C31A G35U,0.02
5,U20A C23G G40C,0.02
6,U20G G21C U28C G36C G44U,0.03
7,U20C C23G G40C,0.06
8,G19U G33A U38C,0.03
9,U20C G30A C45A,0.32
10,U20A A26G G29C,0.33
11,U20G G21U C45G,1.27
12,U20A A24C G29C C31G,0.33
13,U20C A24G A39G,0.03
14,U20G C31G U43A G44C,0.01
15,G19U G30C G36U C45A,0.06
16,U20A G21A G30A C45U,2.02
17,G19U U38C A39U,0.16
18,U20A A26C C42U U43C,0.03
19,U20G C23A C37U C46U,0.02
20,U20A A41C C45A,0.04
21,U20A G21C C23G,0.14
22,G19U U20G C45G,0.22
23,U20C G21U U28A C46A,0.19
24,U20A G27A C31G G35C U43A,0.02

row,Variant,self-cleavage
1,U20G C23A A41C G44C,0.05
2,U20A A26U U43G,0.05
3,U20A A25G C31G,0.02
4,U20A C23G U43A,0.03
5,G19U G29U G33C,0.03
6,U20C A24U A25U,1.19
7,G19U G27C U38A G40A,0.03
8,U20A G30A U38G,0.03
9,U20C G29U G35U,0.06
10,G19U G22C G27C G44U,0.62
11,U20G C23G U28G G35C G36U C46U,0.01
12,U20A U34C G36U G40A,0.13
13,U20A G30A G44C,0.69
14,U20C C23G A25C U34A A41G,0.06
15,U20C A39U A41U,0.4
16,U20A G35U A39G C42G,0.04
17,U20A C23G G29A,0.52
18,U20A C23U G35A,0.21
19,U20A A25C A41G,0.06
20,U20A U32A A39C,0.03
21,U20G G21U A39G C42A,0.02
22,U20A C23A C37U A39G,0.01
23,U20C C37U A39C C42G,0.01
24,U20G G21U G22U C31U G35C,0.08

row,Variant,self-cleavage
1,U20C G30C U32C U34C,0.04
2,U20A G22C C23U C45G,0.08
3,U20G G21U A25G,0.24
4,U20A G33A U34A,0
5,U20A U28C C42G,0.01
6,U20C U32C C46U,0.02
7,U20C A24C A26U A39G A41G C46G,0
8,U20C G30A G35U,0.07
9,U20C A25C G29U U34C G35U C45A,0.11
10,G19U G29U U43C G44A,0.06
11,U20C G21A U38G,0.01
12,U20A G22C G29A,0.8
13,G19U G30A G36C,0.1
14,U20C G22A C37A U38C C42U,0.01
15,G19U U20C C31A C37G,0.02
16,U20C G35C G40A,0.02
17,U20C A26U G35A U38C,0.03
18,U20C A24U C45G,0.04
19,U20A G29A C46A,1.26
20,U20C G22A A26G C37G A39C,0
21,U20G C31G C46U,0.03
22,U20C C31A A41G,0
23,U20G A26U G36U,0.05
